In patent US9974867B2, “Cytotoxic benzodiazepine derivatives” (priority 2014, dated 2018):

Columns and labels:
[1] = test system: NCI-H1703 NSCLC xenografts; assay: Antitumor activity of single dose against NCI-H1703 NSCLC xenografts (Example 11); format: in vivo, SCID mice
Experimental: Female CB.17 SCID mice, 6 weeks old, were received from Charles River Laboratories. Mice were inoculated with 5×10^6 NCI-H1703 tumor cells suspended in 0.2 ml 50% matrigel/serum free medium by subcutaneous injection in the right flank. When tumor volumes reached approximately 100 mm^3 (day 16 post inoculation), animals were randomized based on tumor volume into 4 groups of 6 mice each. Mice received a single IV administration of vehicle control (0.1 ml/mouse) or huML66-sulfo-SPDB-1d at 5, 20, or 50 μg/kg based on compound 1d concentration on day 1 (day 17 post inoculation).
Tumor size was measured twice to three times weekly in three dimensions using a caliper. The tumor volume was expressed in mm^3 using the formula V=Length×Width×Height×½. A mouse was considered to have a partial regression (PR) when tumor volume was reduced by 50% or greater, complete tumor regression (CR) when no palpable tumor could be detected. Tumor volume was determined by StudyLog software. Tumor growth inhibition (T/C Value) was determined using the following formula: T/C (%)=Median tumor volume of the treated/Median tumor volume of the control×100.
Tumor volume was determined simultaneously for treated (T) and the vehicle control (C) groups when tumor volume of the vehicle control reached predetermined size of 1000 mm^3. The daily median tumor volume of each treated group was determined, including tumor-free mice (0 mm^3). According to NCI standards, a T/C≤42% is the minimum level of anti-tumor activity. A T/C<10% is considered a high anti-tumor activity level.

NCI-H292 NSCLC cells = assay: In vitro cytotoxicity WST-8 assay, NCI-H292; format: cell-based; details: presence of excess unconjugated antibody
Experimental: (§1) The ability of huML66-sulfo-SPDB-1d conjugate to inhibit cell growth was measured using in vitro cytotoxicity assays. Target cells were plated at 1-2,000 cells per well in 100 μL in complete RPMI media (RPMI-1640, 10% fetal bovine serum, 2 mM glutamine, 1% penicillin-streptomycin, all reagents from Invitrogen). Antibodies were diluted into complete RPMI media using 3-fold dilution series and 100 μL were added per well. The final concentration typically ranged from 3×10^−8 M to 4.6×10^−12 M. Cells were incubated at 37° C. in a humidified 5% CO2 incubator for 5-6 days. Viability of remaining cells was determined by colorimetric WST-8 assay (Dojindo Molecular Technologies, Inc., Rockville, Md., US). WST-8 is reduced by dehydrogenases in living cells to an orange formazan product that is soluble in tissue culture medium. The amount of formazan produced is directly proportional to the number of living cells. […] Plates were analyzed by measuring the absorbance at 450 nm (A450) in a multiwell plate reader. Background A450 absorbance of wells with media and WST-8 only was subtracted from all values. The percent viability was calculated by dividing each treated sample value by the average value of wells with untreated cells. […] Dose-response curves were generated by non-linear regression and the EC50 value of each curve was calculated using GraphPad Prism (GraphPad software, San Diego, Calif.). […]

Detroit-562 SCC-HN cells = assay: In vitro cytotoxicity WST-8 assay, Detroit-562; format: cell-based; details: presence of excess unconjugated antibody
Experimental: as §1

NCI-H1703 NSCLC cells = assay: In vitro cytotoxicity WST-8 assay, NCI-H1703; format: cell-based; details: presence of excess unconjugated antibody
Experimental: as §1

B1: huML66-sulfo-SPDB-1d (conjugate)
heavy: QVQLQESGPGLVKPSETLSLTCTVSGLSLASNSVSWIRQPPGKGLEWMGVIWNHGGTDYNPSIKSRLSISRDTSKSQVFLKMNSLTAADTAMYFCVRKGGIYFDYWGQGVLVTVSS[human IgG1 constant region cut from this listing]
light: DTVLTQSPSLAVSPGERATISCRASESVSTLMHWYQQKPGQQPKLLIYLASHRESGVPARFSGSGSGTDFTLTIDPMEAEDTATYYCQQSRNDPWTFGQGTKLELKRTVAAPSVFIFPPSDEQLKSGTASVVCLLNNFYPREAKVQWKVDNALQSGNSQESVTEQDSKDSTYSLSSTLTLSKADYEKHKVYACEVTHQGLSSPVTKSFNRGEC
anti-tumor activity level ([1]; single IV 20 μg/kg based on compound 1d): highly active
anti-tumor activity level ([1]; single IV 50 μg/kg based on compound 1d): highly active
minimal effective dose (MED) ([1]; single IV dose): 0.02 mg/kg
EC50 (NCI-H292 NSCLC cells): ~0.7 nM
EC50 (Detroit-562 SCC-HN cells): ~1 nM
EC50 (NCI-H1703 NSCLC cells): ~1 nM
